# The full ranking holds about 33,000 sequences; the median of “E-score (-0.5 to 0.5)” is about -0.017, and the highest 2% start at about 0.3. This is one part of the list.
# Molecular target: T1, Sut1 (UniProt P53032)
# T1 sequence: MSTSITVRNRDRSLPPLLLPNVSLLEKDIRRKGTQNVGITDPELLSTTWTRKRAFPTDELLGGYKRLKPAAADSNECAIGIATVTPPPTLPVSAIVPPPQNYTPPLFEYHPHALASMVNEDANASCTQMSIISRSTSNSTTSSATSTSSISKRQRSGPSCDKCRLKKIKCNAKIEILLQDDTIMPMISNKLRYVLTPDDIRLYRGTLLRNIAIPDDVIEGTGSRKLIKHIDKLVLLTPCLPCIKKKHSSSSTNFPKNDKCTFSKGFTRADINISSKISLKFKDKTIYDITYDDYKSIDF
# Test: PBM E-score (8-mer binding enrichment) (E-score (-0.5 to 0.5)); higher = stronger / more preferred TF binding; most listed sequences are background and not binding sites
# Settings: protein concentration: 200 nM; construct: GST-full length
# Procedure, shortened: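 Yeast transcription factors, full-length or as DNA-binding domains, were expressed with a GST tag using PURExpress in vitro transcription/translation. At about 100-200 nM they were applied to universal all-10-mer Agilent arrays, double-stranded by primer extension on fresh or once-stripped slides. Fluorescent anti-GST detected bound protein, and masliner normalised the scans. E-scores for ungapped eight-base words, pooled with reverse complements, came from the Universal PBM Analysis Suite.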
row,Sequence,PBM E-score
1,GAGCGCAA,-0.157
2,GCGGGTTA,-0.334
3,GAAGGATA,0.042
4,ACAGGCGC,-0.217
5,AGCAGAAG,-0.162
6,CGTTTGAC,-0.115
7,AAATTATC,0.281
8,AGATTGAC,-0.082
9,GTGTAGGA,-0.0986
10,GACGTAAC,0.0399
11,GTGTATGA,0.206
12,ACGGTTAA,0.103
13,ATGATCGG,-0.0227
14,ATTTATGA,0.145
15,ATCCTTTA,0.108
16,AGAGGTAT,0.136
17,CACGCGAA,-0.119
18,AATCTGCA,-0.17
19,CACAAGTG,-0.141
20,CCAGCACA,-0.164
21,CGCTCCGC,0.0358
22,GTAGTGAA,0.125
23,TAGGCTAA,-0.0895
24,CACTATCA,-0.0232
25,TCTTTGAA,0.116

row,Sequence,PBM E-score
1,GAACAAAA,0.243
2,AACCAAAA,0.228
3,CAGTTCAA,0.0635
4,CCCACATA,-0.231
5,ACCCAGGA,-0.13
6,ATTTCTAG,0.231
7,GACATCTA,0.149
8,CACGTGTA,-0.158
9,CCACATGG,-0.139
10,AGTACGAC,-0.191
11,AGCCATTC,-0.116
12,CTTGTCAA,0.152
13,AATAATAT,0.346
14,AGGAGAAG,-0.165
15,CTAGGGAC,-0.127
16,GTGTCTCA,-0.146
17,CACAGAAC,-0.134
18,CAGCCATA,-0.161
19,CGAGGCCG,-0.304
20,AAGTCTGA,-0.193
21,GCAGTAGC,-0.296
22,AACGAATA,-0.0104
23,CACCCTCG,-0.261
24,ACGGGGAT,0.133
25,CTTGGGTC,-0.328

row,Sequence,PBM E-score
1,AGGCAATA,-0.108
2,TTGGAAAA,0.134
3,GAGGTCCA,-0.167
4,CAAACTGG,0.0543
5,ACGCGAGC,-0.0165
6,TCGAGTAA,0.0104
7,AGCTGTTG,-0.0202
8,ATGAGAAG,-0.179
9,AGGCGCCT,-0.315
10,CCATCAGC,-0.184
11,CCCAATCC,-0.211
12,GGAGACAA,0.0139
13,CCAGGTTC,-0.2
14,AATCCTAT,0.199
15,GCGACCCA,-0.103
16,CTTTCCTC,0.00703
17,GCTGTGCA,-0.285
18,GGCAGGCC,-0.192
19,CCCCCCGC,-0.282
20,GGCCAGCA,-0.168
21,CAAAGGTG,-0.101
22,ATGCAGCG,-0.219
23,AAAACGAC,0.0435
24,AGAATAGG,0.173
25,AGAGGATA,0.0609

row,Sequence,PBM E-score
1,GTTCCGGA,0.342
2,CCTGCCAG,-0.312
3,ACGTTCCG,-0.101
4,AGTGGTAC,-0.158
5,ATGATCCG,-0.0542
6,CCCCATCA,-0.248
7,CAGCTATC,-0.207
8,ATCTAATA,0.194
9,CGTAGATC,0.0372
10,ACTAGACA,0.102
11,AGCTTCGC,-0.0959
12,TATTGTGA,0.0252
13,AAAGACTA,0.0422
14,CGTCCTAG,-0.167
15,GCGGGAGC,-0.162
16,AAGCCGGT,-0.073
17,CAAGGGAG,-0.0721
18,ATCCCCAT,-0.142
19,CCGTACGC,-0.153
20,ATGTATGC,0.0223
21,CCAATTGG,-0.0777
22,CCGTTTTA,0.139
23,GCTGCTTA,-0.0582
24,GACTAACC,-0.0877
25,ACATAGTG,0.13

row,Sequence,PBM E-score
1,ACGAAACG,0.0677
2,TAGATAAA,0.206
3,GGTGGATA,-0.0355
4,CACTCAAC,0.0846
5,GACAAGTA,-0.0227
6,ACAAACCG,0.104
7,CGCTCGAA,-0.0769
8,AGGTCCTG,-0.165
9,AGAGCTTC,-0.0303
10,AAACCACA,-0.00511
11,ATCTGAAA,0.0681
12,AGACGTCC,-0.0578
13,CCCTGTAG,-0.0873
14,GATACTGC,0.126
15,CACCGGGG,-0.0525
16,AGCGTGCA,-0.0658
17,ATTCACTG,0.0621
18,CTAATGGC,0.00327
19,CCCACAAC,-0.0114
20,CGGTGGGA,-0.273
21,AAAACTCT,0.0523
22,CACTCGCA,-0.0703
23,ATAGGCCA,-0.0395
24,ACTATCAG,-0.0721
25,CAGACCGC,-0.0767

row,Sequence,PBM E-score
1,AATCAGTC,0.0821
2,AGATCTCG,-0.0106
3,CCAAAAAC,0.164
4,CACATTCA,0.152
5,ACCGGGCG,-0.26
6,ATGGTTTC,0.128
7,CAATTGGA,0.0193
8,AGTACTGA,0.0787
9,ATGCTAGC,0.113
10,CTTATAGA,0.149
11,GACAATCC,0.109
12,TAAGTCAA,0.093
13,AAGCAAGA,0.0766
14,ACCATTGA,0.0561
15,TCGACCGA,-0.118
16,ACCACGCC,-0.178
17,GCCTACGA,-0.16
18,GTATCGTA,0.16
19,CAAGTCCA,0.0573
20,CAACACGA,-0.0458
21,CGAATAAG,-0.00132
22,AACGCAAG,-0.128
23,CAACCCCC,-0.266
24,CGGCCCGA,-0.176
25,AGATTTCC,0.14

row,Sequence,PBM E-score
1,ACGTTCTA,-0.015
2,AAGGCAAA,-0.00534
3,CGACATCC,-0.0333
4,CAACGGGA,0.0235
5,ACCGCTTG,-0.0649
6,AGTAGAAT,0.189
7,GCCGACTA,0.0858
8,CTGGTCTA,-0.144
9,GCTTTTAA,0.0428
10,CTAAAATC,0.0458
11,TGAAATAA,0.00073
12,TACGAGAA,0.0943
13,CCGCATCG,-0.0554
14,TCGCGAAA,-0.00363
15,GTGGTACA,-0.0752
16,CGCGTGAC,-0.216
17,AACAGGAG,-0.0906
18,GCCTCCAA,-0.213
19,AGACGAGC,-0.148
20,CTGCGCTA,-0.193
21,GCCGGAGA,0.316
22,CCATGACG,-0.0782
